Reference: the supplement of paper PMC4967469
By IC50 is meant the dose at which the fit gives 50% viability; a fit beyond the top or the lowest dose is shown as a bound at that dose. For AUC the same curve is integrated over the 256-fold range of doses and scaled to a fraction; it is 1 without any effect and falls as sensitivity rises. For part of these data: An inferred top dose was derived from the fitted curves, not read from the paper. For part of these data: An entry number marks a drug with two screens in the source, which often give different values.

Legend:
Test in all cases: Viability of human cancer cell lines after 72 h of drug (GDSC screen)
[1] = compound: Nc1ccn([C@@H]2O[C@H](CO)[C@@H](O)[C@@H]2O)c(=O)n1 [Cytarabine]; conditions: top dose 2 µM
Description: (§1)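 Human cancer cell lines in 384-well plates, medium with 10% serum, drug for 72 h over a 256-fold dose range (nine 2-fold or five 4-fold steps up to the top dose). Adherent lines were fixed and stained with the nucleic acid dye Syto60, suspension lines read with resazurin; signal relative to control wells, capped at 0 and 100%. One two-parameter sigmoid per drug and line, fitted in a mixed model over all curves with the slope shared within a line.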

[2] = compound: C=CC(=O)Nc1cc(-n2c(=O)ccc3cnc4ccc(-c5cn[nH]c5)cc4c32)ccc1C [QL-X-138]; conditions: top dose 10.24 µM; top dose inferred
Description: as §1

[3] = compound: COc1cc(O)c2c(c1)/C=C/C[C@H](O)[C@H](O)C(=O)/C=C\C[C@H](C)OC2=O [(5Z)-7-Oxozeaenol]; conditions: top dose 10 µM; top dose inferred
Description: as §1

[4] = compound: COc1cc(N2CCC(O)CC2)ccc1Nc1cc(Nc2ccccc2S(=O)(=O)C(C)C)c2cc[nH]c2n1 [MPS-1-IN-1]; conditions: top dose 20 µM; top dose inferred
Description: as §1

[5] = compound: C/C=C(/C)C(=O)O[C@H]1C(C)=C2[C@H]([C@@H]1OC(=O)CCCCCCC)[C@@](C)(OC(C)=O)C[C@H](OC(=O)CCC)[C@@]1(O)[C@H]2OC(=O)[C@@]1(C)O [Thapsigargin]; conditions: top dose 0.512 µM; top dose inferred
Description: as §1

[6] = compound: CCn1c(-c2nonc2N)nc2cnc(Oc3cccc(NC(=O)c4ccc(OCCN5CCOCC5)cc4)c3)cc21 [GSK269962A]; conditions: top dose inferred
Description: as §1

[7] = compound: Cc1cnc(-c2cnc(NCCNc3ccc(C#N)cn3)nc2-c2ccc(Cl)cc2Cl)[nH]1 [CHIR-99021]
Description: as §1

[8] = compound: O=c1cc(-c2cccc3c2Sc2ccccc2S3)oc(N2CCOCC2)c1 [KU-55933]; conditions: top dose 10 µM
Description: as §1

[9] = compound: COc1nc(C)cnc1NS(=O)(=O)c1cccnc1-c1ccc(-c2nnco2)cc1 [Zibotentan]; conditions: top dose 20 µM; top dose inferred
Description: as §1

[10] = compound: Cc1ccc(-c2c(C(=O)CCl)n(CCCO)c3ncnc(N)c23)cc1 [CMK]; conditions: top dose 4 µM; top dose inferred
Description: as §1

[11] = compound: Cc1ccc(F)c(NC(=O)Nc2ccc(-c3cccc4[nH]nc(N)c34)cc2)c1 [ABT-869]; conditions: top dose 1.024 µM; top dose inferred
Description: as §1

[12] = compound: C[C@]1(c2nc3c(C(N)=O)cccc3[nH]2)CCCN1 [ABT-888]; conditions: top dose 5 µM; top dose inferred
Description: as §1

[13] = compound: COc1cc2ncnc(-n3nc(-c4ccccn4)nc3N)c2cc1OC [CP466722]; conditions: top dose 16 µM; top dose inferred
Description: as §1

[14] = top dose 2.5 µM, screen: GDSC drug entry 127
[15] = top dose 5 µM, screen: GDSC drug entry 1192
[16] = top dose 2.56 µM, screen: GDSC drug entry 154
[17] = top dose 10 µM, screen: GDSC drug entry 1241, top dose inferred

| Cell Line | AUC [1] | IC50 [1] [nM] | AUC [2] | IC50 [2] [nM] | AUC [3] | IC50 [3] [nM] | AUC [4] | IC50 [4] [nM] | AUC [5] | IC50 [5] [nM] | AUC [6, 14] | IC50 [6, 14] [nM] | AUC [6, 15] | IC50 [6, 15] [nM] | AUC [7, 16] | IC50 [7, 16] [nM] | AUC [7, 17] | IC50 [7, 17] [nM] | AUC [8] | IC50 [8] [nM] | AUC [9] | IC50 [9] [nM] | AUC [10] | IC50 [10] [nM] | AUC [11] | IC50 [11] [nM] | AUC [12] | IC50 [12] [nM] | AUC [13] | IC50 [13] [nM] |
| --- | --- | --- | --- | --- | --- | --- | --- | --- | --- | --- | --- | --- | --- | --- | --- | --- | --- | --- | --- | --- | --- | --- | --- | --- | --- | --- | --- | --- | --- | --- |
| A3-KAW (B-cell lymphoma, suspension) | 0.916 | 1930 | 0.564 | 921 | 0.626 | 1280 | 0.832 | 9350 | 0.151 | 3.78 | 0.934 | > 2500 | 0.839 | 2470 | 0.993 | > 2560 | 0.852 | 5420 | 0.991 | > 10000 | 0.991 | > 20000 | 0.852 | 2170 | 0.989 | > 1020 | 0.992 | > 5000 | 0.575 | 1540 |
| A4-Fuk (B-cell lymphoma, suspension) | 0.778 | 847 | 0.895 | > 10200 | 0.766 | 3840 | 0.787 | 9100 | 0.069 | < 2 | 0.972 | > 2500 | 0.921 | > 5000 | 0.985 | > 2560 | 0.847 | 7830 | 0.944 | > 10000 | 0.978 | > 20000 | 0.849 | 3190 | 0.985 | > 1020 | 0.986 | > 5000 | 0.827 | 10300 |
| A101D (melanoma, adherent) | 0.768 | 923 | 0.981 | > 10200 | 0.407 | 326 | 0.95 | > 20000 | 0.258 | 5.41 | 0.818 | 1830 | 0.733 | 1700 | 0.95 | > 2560 | 0.802 | 6280 | 0.805 | 6480 | 0.981 | > 20000 | 0.796 | 2370 | 0.981 | > 1020 | 0.853 | > 5000 | 0.98 | > 16000 |
| A253 (head and neck, adherent) | 0.816 | 1070 | 0.82 | 5660 | 0.678 | 1930 | 0.986 | > 20000 | 0.194 | 4.05 | 0.989 | > 2500 | 0.988 | > 5000 | 0.984 | > 2560 | 0.983 | > 10000 | 0.979 | > 10000 | 0.988 | > 20000 | 0.916 | > 4000 | 0.985 | > 1020 | 0.989 | > 5000 | 0.87 | 14200 |
